Test results from publication PMC8858996 (iScience, 2022).

B1: EphA2 G131Y tagged at the C-terminus with mTURQ or EYFP (receptor)
chain: [about 500 residues with changes not spelt out]IGGVAVGVVLLLVLAGVGFFIHRRRKNQRARQSPEDVYFSKSEQLKPLKTYVDPHTYEDPNQAVLKFTTEIHPSCVTRQKVIGAGEFGEVYKGMLKTSSGKKEVPVAIKTLKAGYTEKQRVDFLGEAGIMGQFSHHNIIRLEGVISKYKPMMIITEYMENGALDKFLREKDGEFSVLQLVGMLRGIAAGMKYLANMNYVHRDLAARNILVNSNLVCKVSDFGLSRVLEDDPEATYTTSGGKIPIRWTAPEAISYRKFTSASDVWSFGIVMWEVMTYGERPYWELSNHEVMKAINDGFRLPTPMDCPSAIYQLMMQCWQQERARRPKFADIVSILDKLIRAPDSLKTLADFDPRVSIRLPSTSGSEGVPFRTVSEWLESIKMQQYTEHFMAAGYTAIEKVVQMTNDDIKRIGVRLPGHQKRIAYSLLGLKDQVNTVGIPI
B2: EphA2 WT tagged at the C-terminus with mTURQ or EYFP (receptor)
chain: [about 500 residues not spelt out]IGGVAVGVVLLLVLAGVGFFIHRRRKNQRARQSPEDVYFSKSEQLKPLKTYVDPHTYEDPNQAVLKFTTEIHPSCVTRQKVIGAGEFGEVYKGMLKTSSGKKEVPVAIKTLKAGYTEKQRVDFLGEAGIMGQFSHHNIIRLEGVISKYKPMMIITEYMENGALDKFLREKDGEFSVLQLVGMLRGIAAGMKYLANMNYVHRDLAARNILVNSNLVCKVSDFGLSRVLEDDPEATYTTSGGKIPIRWTAPEAISYRKFTSASDVWSFGIVMWEVMTYGERPYWELSNHEVMKAINDGFRLPTPMDCPSAIYQLMMQCWQQERARRPKFADIVSILDKLIRAPDSLKTLADFDPRVSIRLPSTSGSEGVPFRTVSEWLESIKMQQYTEHFMAAGYTAIEKVVQMTNDDIKRIGVRLPGHQKRIAYSLLGLKDQVNTVGIPI

Biological target: the molecule itself
Assay: FRET or BRET

| Protein | stoichiometry N |
| --- | --- |
| B1 | 2 |
| B2 | > 2 |
